Laboratory results as given in the supplement of paper PMC12067230.
Single values of this set are uncertain.

Assay: amyloid nucleation score relative to library mode (yeast Sup35 reporter selection) (log enrichment difference); higher = more amyloid nucleation; sequences are the first 22 residues of the Bri2 peptide extended by up to 12 random residues
Details: random library (experiment): 1;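 active = nucleation score significantly above 0 at FDR 0.05; inactive = not significantly above 0 or absent from output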
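Further: [psi-pin-] Saccharomyces cerevisiae expressing SupN fusions, induced by 100 µM Cu2SO4, selected 7 d at 30 °C without adenine and uracil, scored by deep sequencing of output versus input.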

| Sequence | amyloid nucleation score |
| --- | --- |
| EASNCFAIRHFENKFAVETLICWSQYMPNEPFGK | 0.911 |
| EASNCFAIRHFENKFAVETLICWSRGSRVSACFD | -0.111 |
| EASNCFAIRHFENKFAVETLICWSSGVVGPQTVA | inactive |
| EASNCFAIRHFENKFAVETLICWSTPPWFVPIVV | -0.372 |
| EASNCFAIRHFENKFAVETLICWSWSYLCLKYKS | inactive |
| EASNCFAIRHFENKFAVETLICWSYLI | inactive |
| EASNCFAIRHFENKFAVETLICWSYPESACGGLK | 4.57 |
| EASNCFAIRHFENKFAVETLICWTDKVSLYWIGR | inactive |
| EASNCFAIRHFENKFAVETLICWTGPCCRDSQV | 5.02 |
| EASNCFAIRHFENKFAVETLICWTGRPWCQVVGW | inactive |
| EASNCFAIRHFENKFAVETLICWTGRYESKWFTR | 3.76 |
| EASNCFAIRHFENKFAVETLICWTGYW | 4.69 |
| EASNCFAIRHFENKFAVETLICWTLFLLL | inactive |
| EASNCFAIRHFENKFAVETLICWTPNATHRVNGG | 2.94 |
| EASNCFAIRHFENKFAVETLICWTPVTCEYHAVG | inactive |
| EASNCFAIRHFENKFAVETLICWTRFQRCAVRLR | 0.645 |
| EASNCFAIRHFENKFAVETLICWTSLLSPYDWWC | inactive |
| EASNCFAIRHFENKFAVETLICWTTRKGAVVRDL | inactive |
| EASNCFAIRHFENKFAVETLICWTVMSSNGWVCW | inactive |
| EASNCFAIRHFENKFAVETLICWV | 4.9 |
| EASNCFAIRHFENKFAVETLICWVAN | 0.539 |
| EASNCFAIRHFENKFAVETLICWVC | 5.67 |
| EASNCFAIRHFENKFAVETLICWVERCSRHWSGQ | 0.627 |

| Sequence | amyloid nucleation score |
| --- | --- |
| EASNCFAIRHFENKFAVETLICWVFRVRFHDRKP | inactive |
| EASNCFAIRHFENKFAVETLICWVKGSCRGLGKM | inactive |
| EASNCFAIRHFENKFAVETLICWVPVFRRCSQWF | 0.428 |
| EASNCFAIRHFENKFAVETLICWVSTGGGQFRRS | inactive |
| EASNCFAIRHFENKFAVETLICWVTAASSVKSWR | 2.91 |
| EASNCFAIRHFENKFAVETLICWVVDPTVIVGCW | 5.93 |
| EASNCFAIRHFENKFAVETLICWVVMAQ | inactive |
| EASNCFAIRHFENKFAVETLICWVWCSRWGYESK | inactive |
| EASNCFAIRHFENKFAVETLICWVYLEFMNQYCT | inactive |
| EASNCFAIRHFENKFAVETLICWW | 4.34 |
| EASNCFAIRHFENKFAVETLICWWKKASLGPPAG | -0.0664 |
| EASNCFAIRHFENKFAVETLICWWKYSPLGGVNA | inactive |
| EASNCFAIRHFENKFAVETLICWWMDLLPWGDQK | -0.0194 |
| EASNCFAIRHFENKFAVETLICWWRCKRRLATAL | inactive |
| EASNCFAIRHFENKFAVETLICWYCLKCFAHCVC | inactive |
| EASNCFAIRHFENKFAVETLICWYDR | inactive |
| EASNCFAIRHFENKFAVETLICWYIASTSVATDR | inactive |
| EASNCFAIRHFENKFAVETLICWYL | 3.7 |
| EASNCFAIRHFENKFAVETLICWYLDGSVRSLMR | inactive |
| EASNCFAIRHFENKFAVETLICWYPSHGPKDGLY | 4.03 |
| EASNCFAIRHFENKFAVETLICWYRVLSLGWGLR | inactive |
| EASNCFAIRHFENKFAVETLICWYSALCERQESL | inactive |

Same assay, conditions: random library (experiment): 2

| Sequence | amyloid nucleation score |
| --- | --- |
| EASNCFAIRHFENKFAVETLICWSTSRRCAKECP | inactive |
| EASNCFAIRHFENKFAVETLICWSVKFSVLRGYE | 1.29 |
| EASNCFAIRHFENKFAVETLICWSWIMMFHRYCW | inactive |
| EASNCFAIRHFENKFAVETLICWSWNCVEYHRVG | 7.07 |
| EASNCFAIRHFENKFAVETLICWSWVG | 8.53 |
| EASNCFAIRHFENKFAVETLICWSYIAGKVNRET | -0.0583 |
| EASNCFAIRHFENKFAVETLICWSYIRRP | 3.02 |
| EASNCFAIRHFENKFAVETLICWT | inactive |
| EASNCFAIRHFENKFAVETLICWTDPTLNRRVCG | inactive |
| EASNCFAIRHFENKFAVETLICWTFNSVCDYLVM | 0.727 |
| EASNCFAIRHFENKFAVETLICWTGIPKSCSSFV | inactive |
| EASNCFAIRHFENKFAVETLICWTIRRF | 3.41 |
| EASNCFAIRHFENKFAVETLICWTQFSSCRSALV | 1.08 |
| EASNCFAIRHFENKFAVETLICWTRMSTLENRWR | inactive |
| EASNCFAIRHFENKFAVETLICWTRSRMENPLIV | inactive |
| EASNCFAIRHFENKFAVETLICWTSMFERDFSTE | 3.55 |
| EASNCFAIRHFENKFAVETLICWTVSVMAGIVMR | inactive |
| EASNCFAIRHFENKFAVETLICWTVTTSLWETRI | inactive |

| Sequence | amyloid nucleation score |
| --- | --- |
| EASNCFAIRHFENKFAVETLICWTWDVHRSYRRG | 4.2 |
| EASNCFAIRHFENKFAVETLICWTYNPIARVVSY | inactive |
| EASNCFAIRHFENKFAVETLICWVCTTIANWYGE | inactive |
| EASNCFAIRHFENKFAVETLICWVFRIHLYPRTR | inactive |
| EASNCFAIRHFENKFAVETLICWVRYSEECVSRG | inactive |
| EASNCFAIRHFENKFAVETLICWVSFRWRDSSKG | inactive |
| EASNCFAIRHFENKFAVETLICWVSRVSRCSNIL | inactive |
| EASNCFAIRHFENKFAVETLICWVTQFGDNKNTG | 5.06 |
| EASNCFAIRHFENKFAVETLICWVTSLPY | inactive |
| EASNCFAIRHFENKFAVETLICWVYNSDIRFAYA | inactive |
| EASNCFAIRHFENKFAVETLICWWLGWMVGYRYW | inactive |
| EASNCFAIRHFENKFAVETLICWWNTKLVSCCRL | inactive |
| EASNCFAIRHFENKFAVETLICWYCQVRVAIYQW | inactive |
| EASNCFAIRHFENKFAVETLICWYFFSYCLGREV | inactive |
| EASNCFAIRHFENKFAVETLICWYFLMYHCKLGE | inactive |
| EASNCFAIRHFENKFAVETLICWYIATYVRSHFN | inactive |
| EASNCFAIRHFENKFAVETLICWYLQPVSRDDKW | 1.49 |
| EASNCFAIRHFENKFAVETLICWYRRLLLCRKWP | 0.462 |

Same assay, conditions: random library (experiment): 3

| Sequence | amyloid nucleation score |
| --- | --- |
| EASNCFAIRHFENKFAVETLICWSPERC | 3.5 |
| EASNCFAIRHFENKFAVETLICWSPHLPSSINRN | 4.28 |
| EASNCFAIRHFENKFAVETLICWSRLTLGLLWMW | inactive |
| EASNCFAIRHFENKFAVETLICWSRSRFAVAVSR | inactive |
| EASNCFAIRHFENKFAVETLICWSRYTCLAPVKR | inactive |
| EASNCFAIRHFENKFAVETLICWSSSRKHKDRIG | 2.47 |
| EASNCFAIRHFENKFAVETLICWSTRKAGMWKDG | 2.48 |
| EASNCFAIRHFENKFAVETLICWTAGPWALGSGW | inactive |
| EASNCFAIRHFENKFAVETLICWTFHRSRCMTIV | inactive |
| EASNCFAIRHFENKFAVETLICWTGSRRAEPTCK | inactive |
| EASNCFAIRHFENKFAVETLICWTMITQTDGCLG | inactive |
| EASNCFAIRHFENKFAVETLICWTPNEKPRMLSS | inactive |
| EASNCFAIRHFENKFAVETLICWTVVRPCRTLDV | 0.778 |
| EASNCFAIRHFENKFAVETLICWVACRLVRVIHR | 0.0944 |
| EASNCFAIRHFENKFAVETLICWVDGRCWGDCQG | 5.01 |
| EASNCFAIRHFENKFAVETLICWVGTWQVQWEWD | 0.788 |
| EASNCFAIRHFENKFAVETLICWVLAVMCAKWGR | 0.98 |
| EASNCFAIRHFENKFAVETLICWVQSRWWKERCP | inactive |
| EASNCFAIRHFENKFAVETLICWVSTVGCLAGKA | inactive |

| Sequence | amyloid nucleation score |
| --- | --- |
| EASNCFAIRHFENKFAVETLICWVSVRGGFSGFR | inactive |
| EASNCFAIRHFENKFAVETLICWVSYLSMPVNQT | inactive |
| EASNCFAIRHFENKFAVETLICWVTFESLWNRMR | inactive |
| EASNCFAIRHFENKFAVETLICWVTSRLGCPGMR | inactive |
| EASNCFAIRHFENKFAVETLICWVVIVRLRMSVQ | 2.12 |
| EASNCFAIRHFENKFAVETLICWVWLMVMLGQDA | inactive |
| EASNCFAIRHFENKFAVETLICWWEGKRLRRWRM | inactive |
| EASNCFAIRHFENKFAVETLICWWGMCSCRWVVR | inactive |
| EASNCFAIRHFENKFAVETLICWWLGIAPHGGMT | inactive |
| EASNCFAIRHFENKFAVETLICWWMFRI | inactive |
| EASNCFAIRHFENKFAVETLICWWMK | inactive |
| EASNCFAIRHFENKFAVETLICWWTPRCSPVCIM | inactive |
| EASNCFAIRHFENKFAVETLICWYASLYYMCQDL | inactive |
| EASNCFAIRHFENKFAVETLICWYASRLAQGVHV | inactive |
| EASNCFAIRHFENKFAVETLICWYE | 3.84 |
| EASNCFAIRHFENKFAVETLICWYGMPPVEWAEC | inactive |
| EASNCFAIRHFENKFAVETLICWYKWSFRALCCV | inactive |
| EASNCFAIRHFENKFAVETLICWYQVRVLLIRDW | -0.558 |
